This is an account of results in the supplement of paper PMC4604168 (melanoma cell lines).

Among the test systems are WM115; WM1716; WM1745; WM3526; WM3619; WM451Lu.
Common to all, as to assay: cell count relative to DMSO control; melanoma cells; higher = more viable cells
What all share (settings): library dose: low library concentration; 72 h

The other results are listed elsewhere or left out. Many values rest on one well or one pass, so single values are uncertain.
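Further: cell number obtained by counting DAPI-stained nuclei in high-throughput microscope images with image analysis software, screen run in 1,536-well plates.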

On to `Cc1ccc(Nc2nccc(N(C)c3ccc4c(C)n(C)nc4c3)n2)cc1S(N)(=O)=O` [Pazopanib] + COc1cc2c(Oc3ccc4[nH]c(C)cc4c3F)ncnc2cc1OCCCN1CCCC1 [cediranib] (first compound 0.4 µM, partner dose 0.4 µM), for which the cell count in the experiment on WM115 is 105%; in the experiment with WM1716, 83.8%; in the experiment with WM1745 it was 95.6%; with WM3526, 78.7%; with WM3619, 89.3%; in the experiment with WM451Lu, 124%.
As for `O=C(/C=C/c1cccnc1)NCCCCC1CCN(C(=O)c2ccccc2)CC1` + C=CCNC1=C2C[C@@H](C)C[C@H](OC)[C@H](O)[C@@H](C)/C=C(\C)[C@H](OC(N)=O)[C@@H](OC)/C=C\C=C(/C)C(=O)NC(=CC1=O)C2=O [Tanespimycin] (first compound 0.01 µM, partner dose 0.002 µM), the cell count in the experiment on WM115 came out at 90.6%; in the experiment with WM1716 it was 110%; in the experiment on WM1745 it was 90.6%; in the experiment with WM3526, 94.1%; with WM3619, 81.8%; in the experiment with WM451Lu, 119%.
Take `CC1(C)CCC(c2ccc(Cl)cc2)=C(CN2CCN(c3ccc(C(=O)NS(=O)(=O)c4ccc(N[C@H](CCN5CCOCC5)CSc5ccccc5)c(S(=O)(=O)C(F)(F)F)c4)cc3)CC2)C1` + OCCn1cc(-c2cnc3nnn(Cc4ccc5ncccc5c4)c3n2)cn1 [PF04217903] (first compound 0.4 µM, partner dose 1 µM): the cell count in the experiment with WM115 was determined as 83.8%; in the experiment with WM1716 it was 87%; in the experiment on WM1745, 22.9%; in the experiment on WM3526 it was 109%; in the experiment with WM3619, 83.7%; with WM451Lu, 96.8%.
For `O=C(/C=C/c1cccnc1)NCCCCC1CCN(C(=O)c2ccccc2)CC1` + O=C(O)c1ccc(-c2c[nH]c3ncc(-c4ccccc4)cc23)cc1C1CCCC1 [GSK650394] (first compound 0.01 µM, partner dose 0.16 µM), the cell count with WM115 is 79.4%; in the experiment with WM1716, 95.2%; with WM1745 it was 88.8%; with WM3526, 88%; with WM3619, 82.4%; with WM451Lu it was 92.8%.
For the compound `O=C(/C=C/c1cccnc1)NCCCCC1CCN(C(=O)c2ccccc2)CC1` + CCCS(=O)(=O)Nc1ccc(F)c(C(=O)c2c[nH]c3ncc(Cl)cc23)c1F [PLX4720] (first compound 0.01 µM, partner dose 0.08 µM), the cell count stood at 108% in the experiment on WM115; 105% in the experiment on WM1716; 98.3% with WM1745; 85.2% in the experiment with WM3526; 82.7% with WM3619; 92.4% with WM451Lu.
As for `Cc1ccc(Nc2nccc(N(C)c3ccc4c(C)n(C)nc4c3)n2)cc1S(N)(=O)=O` [Pazopanib] + COCC[n+]1c2c(n(Cc3cnccn3)c1C)C(=O)c1ccccc1C2=O [YM155] (first compound 0.4 µM, partner dose 0.0004 µM), the cell count in the experiment with WM115 was determined as 95.9%; in the experiment on WM1716 it was 85.3%; in the experiment with WM1745, 92.4%; in the experiment on WM3526, 107%; in the experiment on WM3619, 92.7%; in the experiment with WM451Lu it was 75.9%.
Turning to `CC1(C)CCC(c2ccc(Cl)cc2)=C(CN2CCN(c3ccc(C(=O)NS(=O)(=O)c4ccc(N[C@H](CCN5CCOCC5)CSc5ccccc5)c(S(=O)(=O)C(F)(F)F)c4)cc3)CC2)C1` + O=C1NC(=O)/C(=C/c2ccc(-c3ccc(F)cc3O)o2)S1 [AS252424] (first compound 0.4 µM, partner dose 1 µM), the cell count in the experiment on WM115 was found to be 78.1%; with WM1716 it was 63.1%; in the experiment with WM1745 it was 8.42%; in the experiment on WM3526, 85%; in the experiment with WM3619, 65.1%; in the experiment with WM451Lu it was 86.5%.
`CC1(C)CCC(c2ccc(Cl)cc2)=C(CN2CCN(c3ccc(C(=O)NS(=O)(=O)c4ccc(N[C@H](CCN5CCOCC5)CSc5ccccc5)c(S(=O)(=O)C(F)(F)F)c4)cc3)CC2)C1` + O=C(Nc1cccc(Cl)c1)Nc1ncc(CCNc2ncnc3ccsc23)s1 [SNS314] (first compound 0.4 µM, partner dose 0.0008 µM): the cell count in the experiment on WM115 came out at 81.5%; with WM1716 it was 78.1%; with WM1745 it was 12.2%; in the experiment on WM3526 it was 83.6%; in the experiment on WM3619 it was 74.1%; in the experiment on WM451Lu it was 81.5%.
Turning to `O=C(/C=C/c1cccnc1)NCCCCC1CCN(C(=O)c2ccccc2)CC1` + O=C1NC(=O)/C(=C/c2ccc(-c3ccc(F)cc3O)o2)S1 [AS252424] (first compound 0.01 µM, partner dose 1 µM), the cell count turned out to be 93% in the experiment on WM115; 103% in the experiment on WM1716; 95.7% in the experiment with WM1745; 89.2% with WM3526; 79.6% in the experiment with WM3619; 104% in the experiment on WM451Lu.
On to `Cc1ccc(Nc2nccc(N(C)c3ccc4c(C)n(C)nc4c3)n2)cc1S(N)(=O)=O` [Pazopanib] + Cc1nc(Nc2ncc(C(=O)Nc3c(C)cccc3Cl)s2)cc(N2CCN(CCO)CC2)n1 [dasatanib] (first compound 0.4 µM, partner dose 0.004 µM), for which the cell count with WM115 amounted to 82.8%; with WM1716 it was 81%; in the experiment on WM1745, 69.4%; with WM3526 it was 80.7%; in the experiment with WM3619 it was 70.7%; in the experiment with WM451Lu it was 75.8%.
Consider `Cc1ccc(Nc2nccc(N(C)c3ccc4c(C)n(C)nc4c3)n2)cc1S(N)(=O)=O` [Pazopanib] + OCc1c[nH]c2ccccc12 [Indole-3-carbinol] (first compound 0.4 µM, partner dose 0.8 µM), for which the cell count was 104% with WM115; 85.3% with WM1716; 88.5% in the experiment with WM1745; 96.4% in the experiment with WM3526; 90.2% with WM3619; 94.9% with WM451Lu.
